This passage reports binding results from paper PMC4740818.

Protein sequences, listed by entry. Tags and fused reporters are not part of them. Lines headed by an entry give the natural chain unless they say otherwise; changes in a name come on top. Chains listed by the source or under a name are the forms on record and can include a tag or linker.
UniProt P38936: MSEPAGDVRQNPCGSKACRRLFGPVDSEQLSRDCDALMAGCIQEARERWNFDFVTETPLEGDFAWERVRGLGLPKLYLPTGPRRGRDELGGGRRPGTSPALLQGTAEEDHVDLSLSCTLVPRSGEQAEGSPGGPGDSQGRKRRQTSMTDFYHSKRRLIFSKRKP
UniProt Q13541: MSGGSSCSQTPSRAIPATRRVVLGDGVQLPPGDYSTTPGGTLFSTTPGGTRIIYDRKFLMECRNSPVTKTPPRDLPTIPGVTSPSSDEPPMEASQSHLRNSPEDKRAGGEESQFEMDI
4E-BP1-4A (phosphorylation-defective mutant), transfected in 293T cells (Q13541, form named): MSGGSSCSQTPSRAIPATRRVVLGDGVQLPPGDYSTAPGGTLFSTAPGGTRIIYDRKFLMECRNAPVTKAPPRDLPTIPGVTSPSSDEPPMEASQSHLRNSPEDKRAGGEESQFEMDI
4E-BP1-4A+LM-AA (eIF4E-binding-defective double mutant), Tet-On inducible in HCT116 cells (Q13541, form named): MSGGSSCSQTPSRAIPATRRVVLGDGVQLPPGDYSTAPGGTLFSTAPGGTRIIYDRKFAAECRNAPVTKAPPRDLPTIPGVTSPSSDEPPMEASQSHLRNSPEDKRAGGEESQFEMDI
UniProt P06730: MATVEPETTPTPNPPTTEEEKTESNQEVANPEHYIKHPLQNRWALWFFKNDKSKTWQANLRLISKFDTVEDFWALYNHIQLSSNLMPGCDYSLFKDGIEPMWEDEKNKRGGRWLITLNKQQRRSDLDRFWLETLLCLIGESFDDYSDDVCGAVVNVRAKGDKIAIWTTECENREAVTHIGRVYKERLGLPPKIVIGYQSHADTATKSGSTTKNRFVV
UniProt Q60876: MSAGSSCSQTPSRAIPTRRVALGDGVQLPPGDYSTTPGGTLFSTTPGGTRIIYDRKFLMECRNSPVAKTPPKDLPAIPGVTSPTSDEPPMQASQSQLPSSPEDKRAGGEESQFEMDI

Assay [1] addresses T1, p21 (CDKN1A), endogenous in WT MEFs (mouse (endogenous in MEFs)) (UniProt P39689).
T1 sequence: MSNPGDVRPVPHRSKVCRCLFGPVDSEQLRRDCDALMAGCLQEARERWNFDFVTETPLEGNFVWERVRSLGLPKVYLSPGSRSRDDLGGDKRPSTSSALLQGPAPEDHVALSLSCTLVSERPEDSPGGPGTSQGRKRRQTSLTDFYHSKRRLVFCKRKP
Kind of assay: co-IP; p21 immunoprecipitated from WT MEFs treated with torin-1 (250 nM) for 6 hours in the presence of MG132 (25 uM); lysis buffer 50 mM Tris pH8, 1 mM EDTA, 120 mM NaCl, 1% NP40; western blot.

Assay [2] addresses T1, p21 (CDKN1A), endogenous in WT MEFs (mouse (endogenous in MEFs)). Kind of assay: condition: only without torin-1 (untreated cells, 4E-BP1 phosphorylated by mTORC1); co-IP; p21 immunoprecipitated from untreated WT MEFs (no torin-1) in the presence of MG132 (25 uM); western blot. On the technique in general: Immunoblotting shows a protein as a band on a membrane.
For assay [3], the target named is p21 (CDKN1A), endogenous in human cell lines U2OS and HCT116 (human (endogenous in U2OS and HCT116)) (UniProt P38936). Kind of assay: condition: only with rapamycin (4E-BP1 still phosphorylated); co-IP; endogenous proteins in U2OS and HCT116 cells with rapamycin, in the presence of MG132.
Assay [4] concerns the target exogenous human p21 expressed in 293T cells (human) (UniProt P38936). The assay can be described thus: condition: only without torin-1 (untreated cells, 4E-BP1 phosphorylated by mTORC1); co-IP; 293T cells expressing exogenous human p21, without torin-1, in the presence of MG132.
For assay [5] the target is unchanged. The assay can be described thus: co-IP; 293T cells expressing exogenous human p21, with torin-1, in the presence of MG132.
For assay [6] the target is unchanged. Kind of assay: condition: only with rapamycin (4E-BP1 still phosphorylated); co-IP; 293T cells expressing exogenous human p21, with rapamycin, in the presence of MG132.
Assay [7] has as its target p21 (CDKN1A), endogenous in human cell lines U2OS and HCT116 (human (endogenous in U2OS and HCT116)) (UniProt P38936). Kind of assay: co-IP; endogenous proteins in U2OS and HCT116 cells with torin-1, in the presence of MG132.
For assay [8] the target is unchanged. The assay can be described thus: condition: only without torin-1 (untreated cells, 4E-BP1 phosphorylated by mTORC1); co-IP; endogenous proteins in U2OS and HCT116 cells without torin-1, in the presence of MG132.
Assay [9] concerns the target flag-p21 (human), pMT5-Flag-p21 (human) (UniProt P38936). The assay can be described thus: co-IP; 293T cells transfected with 4E-BP1-4A and flag-p21 plasmids; lysates immunoprecipitated with either anti-4E-BP1 or anti-flag antibodies after MG132 (25 uM) for 5 h; western blot.
Assay [10] has as its target T2, p21 in TSC2-depleted MEFs (UniProt P39689).
T2 sequence: T1 sequence
The assay can be described thus: co-IP; TSC2-depleted MEFs, in the presence of MG132 (Supplementary Fig. 4d).

Assay [11] has as its target p21 in p53-defective HCT116 cells (UniProt P38936). The assay can be described thus: co-IP; p53-defective HCT116 cells, in the presence of MG132 (Supplementary Fig. 4c).
The target of assay [12] is p21 (CDKN1A), endogenous in human cell lines U2OS and HCT116 (human (endogenous in U2OS and HCT116)) (UniProt P38936). Kind of assay: co-IP; HCT116 expressing Tet-On-inducible 4E-BP1 mutants, doxycycline (1 ug/ml) for 24 h; lysates immunoprecipitated with anti-p21 antibodies; immunoblot.
Assay [13] deals with 4E-BP1-4A (phosphorylation-defective mutant), transfected in 293T cells (UniProt Q13541). Kind of assay: co-IP; 293T cells transfected with 4E-BP1-4A and flag-p21 plasmids; lysates immunoprecipitated with either anti-4E-BP1 or anti-flag antibodies after MG132 (25 uM) for 5 h; western blot.
Assay [14] concerns the target eIF4E (cells not told; Supplementary Fig. 3f and 4e) (UniProt P06730). Kind of assay: co-IP; eIF4E with endogenous 4E-BP1, 4E-BP1-4A and p21, in the presence of MG132 (Supplementary Fig. 4e); cells not given.

These are yes or no findings as the source states them, for the method shown. Binding seen in cells or lysates may run through a third protein. Some entries that bind do so weakly or less than the wild type.

In the case of “4E-BP1, endogenous in WT MEFs (from UniProt Q60876 1-117)”, the results for the binding entry in assay [1] and in assay [2] were “binds” and “no binding”, respectively.
Turning to “4E-BP1, endogenous in human cell lines U2OS, HCT116 and 293T (from UniProt Q13541 1-118)”, the binding result in [3] is “no binding”; in assay [4], “no binding”; in assay [5], “binds”; in assay [6], “no binding”; in assay [7], “binds”; in assay [8] it was “no binding”.
Consider “4E-BP1-4A (phosphorylation-defective mutant), transfected in 293T cells (from UniProt Q13541 1-118)”, for which the binding entry in [9] is “binds”.
As to “4E-BP1-4A in TSC2-depleted MEFs (from UniProt Q13541 1-118)”, the binding entry in assay [10] is recorded as “binds”.
As for “4E-BP1-4A in p53-defective HCT116 cells (from UniProt Q13541 1-118)”, the binding result in assay [11] is on record as “binds”.
Consider “4E-BP1-4A+LM-AA (eIF4E-binding-defective double mutant), Tet-On inducible in HCT116 cells (from UniProt Q13541 1-118)”, for which, in assay [12], the binding entry is listed as “binds”.
Still for that read-out and setting: under “4E-BP1-4A, Tet-On inducible in HCT116 cells (pCW57.1-4E-BP1-4A) (from UniProt Q13541 1-118)” stands “binds”.
In the case of “flag-p21 (human), pMT5-Flag-p21 (from UniProt P38936 1-164)”, the binding entry in assay [13] is “binds”.
Consider “p21 (cells not told; Supplementary Fig. 4e) (from UniProt P38936 1-164)”, for which the binding entry in assay [14] is on record as “no binding”.
